Results from PubChem BioAssay (Tox21).
Inconclusive results, whose numbers are uncertain, are shown with a selection of clear calls. Potencies of inconclusive entries are left out as doubtful fits. More than one record can exist for a structure, and the calls need not agree. Calls of active or inactive are those of the source. Unless noted, the call rests on the fitted dose curve; in most records, active means well fitted cell-killing curve with a large enough effect in the repeat runs (not every such curve was filed as active); inconclusive means weak or mixed curves, or effect the other way; inactive means no such curve, though single readings can be large or run the other way.

Molecular target: Nuclear receptor subfamily 1 group I member 3 (Homo sapiens) (UniProt Q14994)
Assay: qHTS assay to identify small molecule agonists of the constitutive androstane receptor (CAR) signaling pathway (AID 1224839; active means well fitted activation curve with a large enough effect in the repeat runs; inconclusive means weak or mixed curves; inactive means no such curve, though single readings can be large or run the other way; further: nearly all actives have a fitted effect of over 15% in size;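 on activation: HepG2 cells stably carrying human CAR and a CYP2B6 luciferase reporter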)
Settings: HepG2 hCAR CYP2B6-luciferase, agonist mode, 24 h; series mostly up to 92.4 µM; activation: at the top concentration
Outline: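 In this screen, CAR-driven CYP2B6 promoter activity is measured by luminescence in HepG2-CYP2B6-hCAR cells after 24 h with test compounds and 0.75 uM PK11195 (final concentration).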
On the % scale 0 is the no-effect control and ±100 the full control effect; potency means the concentration at half of the fitted maximal effect; tags describe the fitted curve by direction and shape.

Chain of UniProt Q14994 (Q14994 whole entry, looked up): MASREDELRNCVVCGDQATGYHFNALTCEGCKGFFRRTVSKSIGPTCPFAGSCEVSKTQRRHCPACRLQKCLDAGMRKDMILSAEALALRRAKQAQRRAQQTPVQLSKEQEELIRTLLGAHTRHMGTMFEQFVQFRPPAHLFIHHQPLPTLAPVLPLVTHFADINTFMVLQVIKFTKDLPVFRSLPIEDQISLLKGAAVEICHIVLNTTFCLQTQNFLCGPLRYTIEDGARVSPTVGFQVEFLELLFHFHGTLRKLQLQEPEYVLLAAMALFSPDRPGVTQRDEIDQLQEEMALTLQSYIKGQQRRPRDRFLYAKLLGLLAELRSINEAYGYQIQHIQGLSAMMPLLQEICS

Structure (SMILES)	Potency	activation
Nc1ccc2ccccc2c1S(=O)(=O)O	active: 22.1 µM	
O=C(Cl)c1cccc([N+](=O)[O-])c1		inactive: -2.58%
CCOC(=O)C(C)Oc1ccc(Oc2nc3ccc(Cl)cc3o2)cc1 (centres undefined)	inconclusive [activator]	
CC(C)=CCC/C(C)=C/CC/C(C)=C/CO	inconclusive [activator, partial curve, poor fit]	
CCOC(=O)c1ccc(O)cc1	inconclusive [activator]	
CCOC(=O)/C=C/c1ccccc1		inactive: 7.51%
OCC(CBr)(CBr)CBr	inconclusive [activator, partial curve, poor fit]	

Tested on: not listed separately
Assay: qHTS assay to identify small molecule antagonists of the estrogen related receptor signaling pathway with the pleiotropic PPARgamma coactivator (PGC) from Tox21 10K library - cell viability counter screen (AID 1224840); further: nearly all actives have a fitted effect of over 40% in size
Settings: PGC/ERR reporter cells viability, CellTiter-Fluor, 17.5 h; series mostly up to 92.4 µM; viability change, negative = cytotoxic: at the top concentration
Outline: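 Cell viability is measured by CellTiter-Fluor fluorescence in PGC/ERR cells that receive compounds after a 6-hour attachment period and are then incubated 17.5 hours at 37 C.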

Structure (SMILES)	viability change, negative = cytotoxic	Potency
CCc1cccc(C)c1N(C(=O)CS(=O)(=O)O)C(C)COC (centres undefined)	inactive: 1.72%	
COc1cc2nc(N3CCN(C(=O)C4COc5ccccc5O4)CC3)nc(N)c2cc1OC (centres undefined)		inconclusive [cytotoxic, partial curve, poor fit]
COc1ccnc(CS(=O)c2nc3ccc(OC(F)F)cc3[nH]2)c1OC (centres undefined)	inactive: -1.33% [at 42.5 µM]	
CN(C)CCC(c1ccc(Cl)cc1)c1ccccn1 (centres undefined)		inconclusive [cytotoxic, partial curve, poor fit]
Nc1ccc(C(=O)OCCCOC(=O)c2ccc(N)cc2)cc1		inconclusive [cytotoxic, partial curve, poor fit]
NC(=O)c1ccccc1		inconclusive [cytotoxic, single point]
c1ccc(CN(Cc2ccccc2)Cc2ccccc2)cc1	inactive: -1.42%	
CCN1CCCC1CNC(=O)c1cc(S(N)(=O)=O)ccc1OC (centres undefined)	inactive: -16.9%	
NC[C@H](O)c1ccc(O)c(O)c1		inactive
C=C(C)C(=O)O[C@H]1C[C@@H]2CC[C@@]1(C)C2(C)C		active: 13.6 µM and inactive
COCCOCCOCCOCCOC	inactive: -4.95%	
CCCCCCCCCCCCCCCCC(=O)O	inactive: 0.432% [at 42.5 µM]	
C=C1CC/C=C(\C)CC[C@@H]2[C@@H]1CC2(C)C	inactive: 0.228%	
Oc1ccccc1C=NCc1ccccc1	inactive: 10.7% [at 42.5 µM]	
CC1CCC(=O)C1=O (centres undefined)	inactive: 5.91%	
Cc1nc2ccc(CN(C)c3ccc(C(=O)N[C@@H](CCC(=O)O)C(=O)O)s3)cc2c(=O)[nH]1	inactive: -2.62% [at 42.5 µM]	

Structure (SMILES)	viability change, negative = cytotoxic	Potency
CCC(C)OC(=O)N1CCCCC1CCO (centres undefined)	inactive: -0.12%	
Fc1ccc(Br)cc1		inactive
CN(C)CCCNCCC#N	inactive: 6.41%	
CCCCCC/C=C/C=O	inactive: 8.04%	
O=C(O)c1ccc2cc(O)ccc2c1	inactive: 7.29%	
CC(COc1ccccc1)NN (centres undefined)	inactive: 13.4% [at 42.5 µM]	
CCN(CC)CCOC(=O)C(c1ccccc1)C1CCCCC1 (centres undefined)		inconclusive [cytotoxic, partial curve, poor fit]
CCN(CC)c1ccc(C(=O)c2ccccc2C(=O)O)c(O)c1		inactive
Cc1oc2c(NC(=O)c3c(Cl)cccc3Cl)cccc2c1C(C)(C)O		inconclusive [cytotoxic, full curve]
O=C(O)c1cc(=O)c2c(OCC(O)COc3cccc4oc(C(=O)O)cc(=O)c34)cccc2o1		inactive
CO[Si](CCCCl)(OC)OC	inactive: -7.64%	
N[C@@H](CCC(=O)O)C(=O)O	inactive: 9.29%	
CC(=O)N[C@H]1[C@H]([C@H](O)[C@H](O)CO)OC(C(=O)O)=C[C@@H]1N=C(N)N	inactive: 3.26% [at 42.5 µM]	
CN1C(C)(C)CCCC1(C)C	inactive: 9.48% [at 42.5 µM]	
CC(=O)NO	inactive: 6.12% [at 42.5 µM]	
O=C=NC1CCC(CC2CCC(N=C=O)CC2)CC1 (centres undefined)		inconclusive [cytotoxic, full curve]
